Source: the RNAGym collection of RNA variant scans (doi:10.1073/pnas.2313332121)
Variants at the floor of the assay are shown more often than the library holds them.

B1: TPR 5TU (parent)
chain: GGAUCUUCUCGAUCUAACAAAAAAGACAAAUCUGCCACAAAGCUUGAGAGCAUCUUCGGAUGCAGAGGCGGCAGCCUUCGGUGGCGCGAUAGCGCCAACGUUCUCAACUAUGACACGCAAAACGCGUGCUCCGUUGAAUGGAGUUUAUCAUG

Variants of: B1
Assay: polymerase ribozyme fitness, log enrichment relative to wild type (log ratio); higher = more active; in vitro selection for triplet polymerase activity
Summary of the method: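 Mutant libraries for each subunit of a heterodimeric triplet polymerase ribozyme were made by PCR and then transcribed. Each library underwent one round of in vitro selection in triplicate: annealing with a biotinylated primer, the partner subunit and triplets, frozen incubation at −7 °C, gel excision of extended constructs, streptavidin-bead capture and RT-PCR. Input and output libraries were Illumina-sequenced, and only genotypes with ≥10 input reads and ≥1 read per output were kept. Fitness is the logarithm, base 2, of genotype enrichment over wild-type enrichment, computed from inverse-variance-weighted replicate averages.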

Polymerase ribozyme fitness (log ratio), ≤ -4.2:
C10U C27A C32G C87U C96U C105A G133U
C10G A20U C54U A91G G100C U145G A150G
U9G A22U C35G G50U C95G C96U U135C
C10U U53A C63G C69A U144A
G11A A30G A41U U77G G94U
G11A C18G A21G C87U A98G
C10G A19C C27G G84C A91G
C10G G94A C116G A121U G124U G152A
C10G A40G U45A G84A U102G
C10U G92U C99U A137C
G11U A40C G50C U82C C85A U101A A106C A115U A142U
C10U A37U C118U A138C
C10G A39G A41C G94C G117C
C10U A41C G81C G117C A142C
G11A U45A A89C A91G G128A U148A
U9G G67A C95U U102A A142U
G11C A23U U53A G81U C87A G140U
G11C C18G G86C
U9C G25A C38U U78A U90C G92U C95U A121G
C10G C85A A89U C99G
U9C A47C G83A
A12C C69G G70A C96U A110U
G11A C51U G86U C108U A119U A142C
C10A A24U A52G U55A C93U C116U
C10U U13G C72U C85U A91G C95A A97U
G11A A16U A19U U77G C85U G117A C125G
G11C G59C C95A C99G
G11A G50C G58C A73U C76U A138U
U9C U53A A91G
C10A A16U G58A G59U C69U C85A C93A
C10U G84A G88U A113G G128A C131G G136C
C10G C57A A73G U78A C85U U144C
C10A U55A C63U A150C
G11U A37U C87G A106C G128A
A12C U53A C57U U78G G117C C149A
G11C A22G A26U G83A A89C U90G C123U
G11C U77G A91U
C10A C18G A22C G42A G67A C87U
G11U A21C C43G U56G G62C G92A G141C
A12C A24C U55G C85G G100A C132G
U9G U45C A52C A121G U145G
C10G G83C C85G G92U U134A
C10U U13G U15C A19C C43G C75G U78G C99A A115C C116U
C10G U13G A47C C93U A106U A107G
G11U G71U C103U A138C G140U
G11U U15A C93A A120C
U9C G88A U104G G143C
A12C A21U C43A G48U G58U G70A C95U A120C
G11A A28U G50C C51A G74U C85U G126A
G11U C27A C87G U111G C131U U146G U148G
C10U U55A G68A C76A A89C C93U C95A C108A A115U G117A U130G
G11U A30U A47G C85U C125U G141A
G11C G68A A89G U111G C114G G140A
A12C A19C A20U U44G G50A G59C C123U U135A
C10G A24C U45G C96A C103A G124C
G11C A17C A41G G46A G62A C103A U135G
G11A C76G C93A G117A
C10A U45G C85U
A12C C36A G42A G94U A150G
G11C A19C C79A C125G
G11U A30U G48C A73U A91U C114U C132G
A12C C57U U77C G83U
C10G A19G G83U G94A C95A A97C A121C G143U U146G
C10A A23U U33A G86A
C10G G59A G65C U146G A150C U151A
C10G A19G C38U G58C C63U G70C
U9G A40C U146G
C10U A12C A26C G50A A64U
U9G A21C A73G G84U C87A
G11C A24U U31G C38A G59A G86U U102C G128C
G11A U61G C95U A97G C105A A106U
C10G A19U A40U G59A A73G G84U A89U C108A A115U A142C U145C
A12C C87A
A12C C54U G70A A91U C116A G117U A121U U139G A142C
C10G U45G C57U G70C C76A A91G C93A
C10U C32A C75U C131U
A12C C38U G58A U77A C96U
A12C C54U A91U A107G C131U
A12C G46U A49C U53A A73G C79A A91G G92C C93G G94C C105U
C10U A17G G42U U44A G58C G83U U111C
G11C C95U U111G G112C A142C
C10U C35G G65C G81U C93U C96U C103U
C10U A20C C108U
U9G A37U C95U U144C
C10A A23C C51A U56A C57G G74A C103G C118U
G11A U15A C36A A97U G100A A106C A113G A119U
C10G A16C A39C G74A G88U C129A U134C
C10G C14U A17U U31A C103A
G11U C57G A113G
G11U A12U C27G A64C C93U A150G
C10U G25C A26U C57G U77A G88A G124C U144C
U9C U45G U53A C95U C103G
G11A C54U A66G C96A G136A
U9C A52C A60C C85A G126U
G11C U13G U53G U55A G92U
U9C A30C A39U U82G G88U C114U
G11A A22U A29U A41G U55A U56A G84C
G11C C54G G59C U61A G94A A106U C125G A142C
C10G U56A U77C A106G A120U G140U G143A
A12C C14G U33C U45G G92U A122C
C10A A91G
G11U A21U U45A A49U C87G C93U A113G A138U C149G
C10A G46U C85A C99G G126C
C10G A40U A64C C72A C87A U101G G124A
G11U C79A G83A C93U C99G C125G C132G
G11A C87A
C10U C27A U53G A66C C87A
G11C A22U C27A C32G G58A G94C A115C U134A U145C
C10G C38U C85U U90A U135C
C10G A21C A26U A29U U31A C35U C95U
A12G A17C A52U A66C G94A
U9G C18U C54G G67U G83U C108A G117A U148C A150C
A12G A21C A41U C99G A150C
C10A A28U U53A C69A G80A A89C G126C
C10U G59A U77G G92U C99A G124A
C10A A26G G59A C75U C116U C131A G143A A150C
A12G A21C A39C U44A G71A C76A U102G A115G C116U
C10A A19G A37U U55A G71A
U9G A20C C35U G94U U148C
G11C C43U G80C G86U A138G U151A
U9G A39U C85G
U9C C57A A91C G94A C105G A106G
C10G G80C U90G A106C A115G C132A
C10G G11A A37C C93G C123A G141C
C10A G83A A113C C116U
U9G A91G G94C G143A
G11C G34C G83A A91U U102C G112U A113U A142C
G11C A26G G58A G124C
U9G A12G A23C A30C G42A A52C C85A
U9C C38U A73U G84A
A12C G25C A91G A150C
C10A G25A G59C C87U A106G G141C C149G A150U
U9G G11U C14G A41C G48A C85U G143C
U9G U33G G42U G65C A73U C96U U151A
A12G A21G A49G U55A C72A U77C G140U
A12C A17U U55A G83U U101G C116G
C10A C54U G71U G94C U102A A142U A147C C149U
C10G U55G C87A A110G C129G
C10A G88A U101A U102A
U9G C38A G86C C108A A122C A150C
U9G C36A G70U A122U
C10U A30U C35U U55G U61A
U9G C35A U53A C63G
C10G A52C C63U A110G
C10U C14G A17G U55A G88C U101G A120C G136A
C10G G50C U90A A98G C99A U111G A119U A122U
C10A C116A C118U U148A
G11U A89U G92A U104A G140A U144G
U9G C36A C57U G59A G74A C85G U90A C95A C114U G136C
G11A A12C A20U C87U C114A C149U
G11A G25C C32G A60U
C10G G11A G46A C57A U78G C79G G92A C123U
G11A A30C C95G A119U C132U
A12G A17U G58C C85U G100U
C10G A37C C87U
C10G A24C C27U A29U A52G G94U A110U G133C
U9G C14G A28U U45A A60U C75A C108G A138G
G11A C35U U55G G84A C85A U102C
G11U G88C C93G G143C U144C
U9G A19U A52G U56A G68U C87A U145G
C10G C27G C35G A49C G70C C79A C95G
C10G A17U C54A G83U
C10G C76U G84A C85A C129U U134C
U9G C85G C87U A110G
A12C A26U G42U A52U U53A U56A C57A A110G C114U G124U U148A
G11A U13G U15G G71C C95G C103A G128U U130G C149G
C10A U55A G88C A110C A137U G141C
